# Some of the results follow.
# Columns and labels:
# Assay in all cases: glycan array binding signal (z-score within array); higher = stronger binding
# Details in all cases: glycan notation: IUPAC condensed, linker removed
# [1] = target: Gal(b1-3)GalNAc(b1-4)Gal(b1-4)Glc
# Procedure, shortened: (§1)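 Negative Z-scores can be read as non-binding. The Z-score is calculated within each array and then averaged across arrays of one protein sequence at different concentrations or buffers and across linkers. Arrays, 3228 in all, were curated from the Consortium for Functional Glycomics database and kept only where the protein sequence was available.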
# [2] = target: Gal(b1-3)GalNAc(b1-4)[Neu5Ac(a2-3)]Gal(b1-4)Glc
# Procedure, shortened: as §1
# Gal(b1-3)GlcNAc = target: Gal(b1-3)GlcNAc
# Procedure, shortened: as §1
# [3] = target: Gal(b1-3)GlcNAc(a1-3)Gal(b1-4)GlcNAc
# Procedure, shortened: as §1
# [4] = target: Gal(b1-3)GlcNAc(a1-6)Gal(b1-4)GlcNAc
# Procedure, shortened: as §1
# [5] = target: Gal(b1-3)GlcNAc(b1-2)Man(a1-3)[Gal(b1-3)GlcNAc(b1-2)Man(a1-6)]Man(b1-4)GlcNAc(b1-4)GlcNAc
# Procedure, shortened: as §1
# [6] = target: Gal(b1-3)GlcNAc(b1-2)Man(a1-3)[Gal(b1-3)GlcNAc(b1-2)Man(a1-6)]Man(b1-4)GlcNAc(b1-4)[Fuc(a1-6)]GlcNAc
# Procedure, shortened: as §1
# [7] = target: Gal(b1-3)GlcNAc(b1-2)Man(a1-3)[GlcNAc(b1-4)][Gal(b1-3)GlcNAc(b1-2)Man(a1-6)]Man(b1-4)GlcNAc(b1-4)GlcNAc
# Procedure, shortened: as §1
# [8] = target: Gal(b1-3)GlcNAc(b1-2)[Gal(b1-3)GlcNAc(b1-6)]Man(a1-6)[Gal(b1-3)GlcNAc(b1-2)Man(a1-3)]Man(b1-4)GlcNAc(b1-4)GlcNAc
# Procedure, shortened: as §1
# [9] = target: Gal(b1-3)GlcNAc(b1-3)Gal(b1-3)GlcNAc
# Procedure, shortened: as §1
# [10] = target: Gal(b1-3)GlcNAc(b1-3)Gal(b1-4)Glc
# Procedure, shortened: as §1
# [11] = target: Gal(b1-3)GlcNAc(b1-3)Gal(b1-4)GlcNAc
# Procedure, shortened: as §1
# [12] = target: Gal(b1-3)GlcNAc(b1-3)Gal(b1-4)GlcNAc(b1-6)[Gal(b1-3)GlcNAc(b1-3)]Gal(b1-4)Glc
# Procedure, shortened: as §1
# [13] = target: Gal(b1-3)GlcNAc(b1-3)Gal(b1-4)[Fuc(a1-3)]GlcNAc(b1-6)[Gal(b1-3)GlcNAc(b1-3)]Gal(b1-4)Glc
# Procedure, shortened: as §1
# [14] = target: Gal(b1-3)GlcNAc(b1-3)GalNAc
# Procedure, shortened: as §1
# [15] = target: Gal(b1-3)GlcNAc(b1-6)Gal(b1-4)GlcNAc
# Procedure, shortened: as §1
# [16] = target: Gal(b1-3)GlcNAc(b1-6)GalNAc
# Procedure, shortened: as §1
# Gal(b1-3)GlcNAc6S = target: Gal(b1-3)GlcNAc6S
# Procedure, shortened: as §1
# [17] = target: Gal(b1-3)[Fuc(a1-4)]GlcNAc
# Procedure, shortened: as §1
# [18] = target: Gal(b1-3)[Fuc(a1-4)]GlcNAc(b1-2)Man(a1-3)[Gal(b1-3)[Fuc(a1-4)]GlcNAc(b1-2)Man(a1-6)]Man(b1-4)GlcNAc(b1-4)[Fuc(a1-6)]GlcNAc
# Procedure, shortened: as §1
# [19] = target: Gal(b1-3)[Fuc(a1-4)]GlcNAc(b1-3)Gal(b1-3)[Fuc(a1-4)]GlcNAc
# Procedure, shortened: as §1
# [20] = target: Gal(b1-3)[Fuc(a1-4)]GlcNAc(b1-3)Gal(b1-4)GlcNAc
# Procedure, shortened: as §1
# [21] = target: Gal(b1-3)[Fuc(a1-4)]GlcNAc(b1-3)Gal(b1-4)[Fuc(a1-3)]GlcNAc
# Procedure, shortened: as §1
# [22] = target: Gal(b1-3)[Fuc(a1-4)]GlcNAc(b1-6)GalNAc
# Procedure, shortened: as §1
# [23] = target: Gal(b1-3)[GlcNAc(b1-6)]GalNAc
# Procedure, shortened: as §1
# [24] = target: Gal(b1-3)[Neu5Ac(a2-6)]GalNAc
# Procedure, shortened: as §1
# [25] = target: Gal(b1-3)[Neu5Ac(a2-6)]GlcNAc(b1-6)Gal(b1-4)Glc
# Procedure, shortened: as §1
# [26] = target: Gal(b1-3)[Neu5Ac(b2-6)]GalNAc
# Procedure, shortened: as §1
# Gal(b1-4)Gal = target: Gal(b1-4)Gal
# Procedure, shortened: as §1
# [27] = target: Gal(b1-4)GalNAc(a1-3)[Fuc(a1-2)]Gal(b1-4)GlcNAc
# Procedure, shortened: as §1
# [28] = target: Gal(b1-4)GalNAc(b1-3)[Fuc(a1-2)]Gal(b1-4)GlcNAc
# Procedure, shortened: as §1
# Gal(b1-4)Glc = target: Gal(b1-4)Glc
# Procedure, shortened: as §1
# Gal(b1-4)Glc6S = target: Gal(b1-4)Glc6S
# Procedure, shortened: as §1
# Gal(b1-4)GlcNAc = target: Gal(b1-4)GlcNAc
# Procedure, shortened: as §1
# [29] = target: Gal(b1-4)GlcNAc(a1-6)Gal(b1-4)GlcNAc
# Procedure, shortened: as §1
# Gal(b1-4)GlcNAc(b1-2)Man = target: Gal(b1-4)GlcNAc(b1-2)Man
# Procedure, shortened: as §1
# [30] = target: Gal(b1-4)GlcNAc(b1-2)Man(a1-3)Man(b1-4)GlcNAc(b1-4)GlcNAc
# Procedure, shortened: as §1
binder,measurement,setting,value
"Gal 8 (Homo sapiens), O00214_1 (protein) MMLSLNNLQNIIYNPVIPFVGTIPDQLDPGTLIVIRGHVPSDADRFQVDLQNGSSMKPRADVAFHFNPRFKRAGCIVCNTLINEKWGREEITYDTPFKREKSFEIVIMVLKDKFQVAVNGKHTLLYGHRIGPEKIDTLGIYGKVNIHSIGFSFSSDLQSTQASSLELTEISRENVPKSGTPQLRLPFAARLNTPMGPGRTVVVKGEVNANAKSFNVDLLAGKSKDIALHLNPRLNIKAFVRNSFLQESWGEEERNITSFPFSPGMYFEMIIYCDVREFKVAVNGVHSLEYKHRFKELSSIDTLEINGDIHLLEVRSW",glycan array binding signal (z-score),[1],-0.083
same,glycan array binding signal (z-score),[2],-0.242
same,glycan array binding signal (z-score),Gal(b1-3)GlcNAc,-0.167
same,glycan array binding signal (z-score),[3],0.729
same,glycan array binding signal (z-score),[4],-0.26
same,glycan array binding signal (z-score),[5],-0.052
same,glycan array binding signal (z-score),[6],-0.63
same,glycan array binding signal (z-score),[7],-0.104
same,glycan array binding signal (z-score),[8],0.178
same,glycan array binding signal (z-score),[9],0.531
same,glycan array binding signal (z-score),[10],0.084
same,glycan array binding signal (z-score),[11],-0.066
same,glycan array binding signal (z-score),[12],0.498
same,glycan array binding signal (z-score),[13],0.338
same,glycan array binding signal (z-score),[14],-0.235
same,glycan array binding signal (z-score),[15],-0.184
same,glycan array binding signal (z-score),[16],-0.2
same,glycan array binding signal (z-score),Gal(b1-3)GlcNAc6S,0.487
same,glycan array binding signal (z-score),[17],-0.191
same,glycan array binding signal (z-score),[18],-0.173
same,glycan array binding signal (z-score),[19],-0.099
same,glycan array binding signal (z-score),[20],-0.181
same,glycan array binding signal (z-score),[21],-0.12
same,glycan array binding signal (z-score),[22],-0.11
same,glycan array binding signal (z-score),[23],-0.186
same,glycan array binding signal (z-score),[24],-0.22
same,glycan array binding signal (z-score),[25],-0.169
same,glycan array binding signal (z-score),[26],-0.255
same,glycan array binding signal (z-score),Gal(b1-4)Gal,-0.099
same,glycan array binding signal (z-score),[27],0.79
same,glycan array binding signal (z-score),[28],-0.231
same,glycan array binding signal (z-score),Gal(b1-4)Glc,-0.238
same,glycan array binding signal (z-score),Gal(b1-4)Glc6S,-0.209
same,glycan array binding signal (z-score),Gal(b1-4)GlcNAc,-0.219
same,glycan array binding signal (z-score),[29],-0.226
same,glycan array binding signal (z-score),Gal(b1-4)GlcNAc(b1-2)Man,-0.163
same,glycan array binding signal (z-score),[30],-0.202
